# Experimental data from article PMC4336329 (PLoS ONE, 2015).
# Among all 310,000 compounds or so, about 2,200 (0.71%) showed an effect of 50% or more. The effect is printed as a negative number. The list shows a part of the results.
# Biological target: human ether-à-go-go-related gene (hERG) potassium channel (human, UniProt Q12809)
# Experiment: primary screen, population patch clamp on CHO cells stably expressing hERG
# Chain of human ether-à-go-go-related gene (hERG) potassium channel (Q12809 whole entry, looked up): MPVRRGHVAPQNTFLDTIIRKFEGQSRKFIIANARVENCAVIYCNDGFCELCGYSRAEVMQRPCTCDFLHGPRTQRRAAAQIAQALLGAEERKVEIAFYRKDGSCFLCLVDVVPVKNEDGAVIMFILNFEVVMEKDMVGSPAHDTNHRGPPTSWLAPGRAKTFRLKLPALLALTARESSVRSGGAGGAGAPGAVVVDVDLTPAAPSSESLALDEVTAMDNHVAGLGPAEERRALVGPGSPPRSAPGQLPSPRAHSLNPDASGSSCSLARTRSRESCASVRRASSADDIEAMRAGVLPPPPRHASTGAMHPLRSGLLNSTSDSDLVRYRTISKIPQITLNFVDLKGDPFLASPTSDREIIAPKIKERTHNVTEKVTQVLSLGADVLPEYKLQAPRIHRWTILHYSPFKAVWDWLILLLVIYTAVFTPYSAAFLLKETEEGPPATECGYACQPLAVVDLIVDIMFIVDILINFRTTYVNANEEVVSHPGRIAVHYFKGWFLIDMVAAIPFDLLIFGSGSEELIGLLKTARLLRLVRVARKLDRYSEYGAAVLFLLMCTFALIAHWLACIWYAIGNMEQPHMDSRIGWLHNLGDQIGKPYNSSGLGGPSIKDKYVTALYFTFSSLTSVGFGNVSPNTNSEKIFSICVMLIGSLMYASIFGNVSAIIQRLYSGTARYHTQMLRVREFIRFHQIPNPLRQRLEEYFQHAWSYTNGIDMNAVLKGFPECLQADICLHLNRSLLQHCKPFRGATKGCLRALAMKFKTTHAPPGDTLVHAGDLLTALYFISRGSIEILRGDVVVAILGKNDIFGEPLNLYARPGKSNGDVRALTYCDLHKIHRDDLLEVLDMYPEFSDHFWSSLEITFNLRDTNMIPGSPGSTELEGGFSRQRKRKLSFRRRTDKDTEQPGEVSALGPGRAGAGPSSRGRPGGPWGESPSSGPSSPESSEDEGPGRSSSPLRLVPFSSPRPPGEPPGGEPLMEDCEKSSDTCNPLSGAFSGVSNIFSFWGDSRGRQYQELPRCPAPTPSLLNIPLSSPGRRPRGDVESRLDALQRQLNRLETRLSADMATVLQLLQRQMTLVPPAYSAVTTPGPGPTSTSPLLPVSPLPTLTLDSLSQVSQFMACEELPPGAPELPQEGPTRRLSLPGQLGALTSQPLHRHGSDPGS
row,SMILES,"hERG current change (%, negative = inhibition) at 1uM [%]"
1,Nc1cc(=O)[nH]c(=S)n1-c1cccc(C(F)(F)F)c1,21.1
2,O=[N+]([O-])c1ccc(O)c(/C=N/NC(=S)Nc2ccc(Cl)cc2Cl)c1,26.8
3,CCN1CCn2c3c(c4cc(Br)ccc42)CCCC31.Cl (centres unmarked),5.59
4,O=C(Nc1cc(C(F)(F)F)ccc1N1CCOCC1)C1=NN(c2ccccc2)C(=O)CC1,1.58
5,Cc1ccc(C(=O)Nc2ccc3c(c2)OCO3)cc1S(=O)(=O)N1CCCCC1,12.9
6,O=C(CN1CCN(C(=O)c2ccccc2)CC1)Nc1ccc(Cl)cc1F,-54.8
7,Cc1nnc(SCc2ccc(Cl)cc2)nc1/C=C/N(C)C,-14.8
8,COC(=O)c1ccccc1NC(=O)C1CC(=O)N(c2ccccc2)C1 (centres unmarked),-9.39
9,CCC(C(=O)OCC(=O)Nc1ccc(C(=O)Nc2ccc(OC)cc2)cc1)c1ccccc1 (centres unmarked),0.162
10,Cc1ccc(C(=O)NCCN2CCOCC2)cc1C,15.2
11,COc1ccccc1N1CCN(S(=O)(=O)c2c[nH]c(=O)[nH]c2=O)CC1,-8.73
12,Cc1csc(NC(=O)c2ccccc2)n1,4.74
13,O=C(/C=C/c1ccc([N+](=O)[O-])cc1)NCCc1ccccc1,-8.23
14,COc1ccc(C2(O)CCN(Cc3nnnn3Cc3ccc(F)cc3)CC2)cc1,-2.99
15,O=C(NCc1ccccn1)c1cccn1-c1ncc(C(F)(F)F)cc1Cl,14
16,O=c1[nH]c(=O)n(CCC2=CCCCC2)c(O)c1/C=N/Nc1ccccc1,18.2
17,CCOc1ccc2nc(CN3CCN(Cc4ccsc4)C(CCO)C3)ccc2c1 (centres unmarked),-7.92
18,COc1ccccc1NS(=O)(=O)NC(=O)c1cn(C)c2ccccc12,17.3
19,CCOC(=O)Cc1nnc(NC(=O)COc2ccc(C)cc2)s1,6.81
20,COc1cc(/C=C(/C#N)c2ccc(C)cc2)ccc1Oc1ccc([N+](=O)[O-])cn1,1.31
21,CC(C)C(=O)N(Nc1nc2ccccc2s1)C(=O)C(C)C,6.89
22,NC(=O)CSc1cn(CCNC(=O)c2cccs2)c2ccccc12,12.6

row,SMILES,"hERG current change (%, negative = inhibition) at 1uM [%]"
1,O=C(Nc1cccc(F)c1)NC1(C(=O)N2CCC(O)CC2)CCCCC1,16.8
2,O=[N+]([O-])c1ccc(CS(=O)(=O)c2ncn[nH]2)cc1,13.7
3,O=C(c1cccc(C(F)(F)F)c1)C1CCCN(Cc2ccccc2O)C1 (centres unmarked),13.2
4,O=C(NC1CCCC1)c1ccc2nc(-c3ccco3)c(-c3ccco3)nc2c1,-3.23
5,Cl.Clc1ccc(OCCCCN2CCc3ccccc3C2)cc1,-8.64
6,O=C(NCCCn1ccnc1)C(Cc1ccccc1)N1C(=O)c2ccccc2C1=O (centres unmarked),-2.93
7,N#CC1CCCc2c1[nH]c1ccc([N+](=O)[O-])cc21 (centres unmarked),15
8,CCC(C(=O)Nc1cccc(C(F)(F)F)c1)c1ccccc1 (centres unmarked),9.56
9,CC(/C=C/c1ccccc1)=N\Nc1nc(-c2ccccc2)cs1,1.94
10,O=[N+]([O-])c1ccc(S(=O)(=O)CC2CSc3nc4ccccc4n32)cc1 (centres unmarked),4.78
11,Cc1ccc(S(=O)(=O)CC#CCOC(=O)c2ccc([N+](=O)[O-])cc2)cc1,4.13
12,COc1ccc(N2CCN(C(=O)C3CCCN(c4ncnc5c4nc4n5CCCCC4)C3)CC2)cc1 (centres unmarked),-11.8
13,COc1ccccc1C1CC(c2ccc(Cl)cc2)Nc2nc(N)nn21 (centres unmarked),-13.9
14,O=[N+]([O-])c1ccc(-c2cnc(SCc3ccccc3Cl)[nH]2)cc1,9.37
15,Cc1cccnc1N1C(=O)c2ccc(C(=O)O)cc2C1=O,12.5
16,O=C1NCCc2c1[nH]c1ccccc21,-4.21
17,S=C1NC[C@H](Cc2ccccc2)N1CCCCC1CCCCC1,0.157
18,Cc1nc(CC(=O)Nc2nccs2)cs1,4.66
19,Cc1cc(C)nc(NC2=NCCN2C(=S)Nc2c(C)cccc2C)n1,7.82
20,CN(CC(=O)Nc1ccccc1Cl)C(=O)c1cc(C2CC2)nn1-c1ccccc1,3.4
21,Cc1ccc(C2OC3=C(C(=O)CC(C)(C)C3)C(N)=C2C#N)o1 (centres unmarked),5.65
22,COc1ccc(-c2cc(C)nc(SCC(=O)c3cccc([N+](=O)[O-])c3)n2)cc1,-3.64
